Measured values taken from the supplement of paper PMC12217912.
Some of the results follow. The full chains were built here from the parent and the listed change. Values near 0.05 are background.

B1: TEV protease; numbered along this chain (parent)
chain: MGESLFKGPRDYNPISSSICHLTNESDGHTTSLYGIGFGPFIITNKHLFRRNNGTLVVQSLHGVFKVKDTTTLQQHLVDGRDMIIIRMPKDFPPFPQKLKFREPQREERICLVTTNFQTKSMSSMVSDTSCTFPSGDGIFWKHWIQTKDGQCGSPLVSTRDGFIVGIHSASNFTNTNNYFTSVPKNFMELLTNQEAQQWVSGWRLNADSVLWGGHKVFMVKPEEPFQPVKEATQL

Variants of: B1
Test: raw area under fraction-flipped curve 0-4 h after induction (AUC4h, not background-subtracted), DNA-recorder readout of cleavage of the substrate (dimensionless); higher = more cleavage of the substrate by the protease variant
Settings: temperature: 34 °C; time window: 0-4 h after rhamnose induction
Experimental: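 In vivo DNA recorder in E. coli TOP10(DE3) ΔrhaA at 34 °C. Each TEVp single-site mutant (parent TEVp 0) is paired with a single-site variant of the 7-mer TEVs (canonical ENLYFQ|S). The substrate sits between flexible linkers in a Bxb1-sfGFP-TEVs-SsrA fusion, so cleavage stabilises Bxb1 and speeds flipping of a recombination array, read by NGS. The value is the raw area under the fraction-flipped curve over 0-4 h after rhamnose induction (AUC4h), with ≥20 reads per time point. It is not background-subtracted; inactive controls average about 0.047.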
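Note: Bxb1 expression induced with 0.2% (w/v) L-rhamnose at OD600 near 0.5, cultures sampled hourly, flipped fraction per protease–substrate barcode pair counted by paired-end Illumina sequencing.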

| Variant | area with substrate ENLAFQS | area with substrate ENLCFQS | area with substrate ENLDFQS | area with substrate ENLFFQS | area with substrate ENLHFQS | area with substrate ENLIFQS | area with substrate ENLKFQS | area with substrate ENLLFQS | area with substrate ENLNFQS | area with substrate ENLPFQS | area with substrate ENLQFQS | area with substrate ENLRFQS | area with substrate ENLSFQS | area with substrate ENLVFQS | area with substrate ENLWFQS | area with substrate ENLEFQS | area with substrate ENLTFQS | area with substrate ENLGFQS | area with substrate ENLMFQS |
| --- | --- | --- | --- | --- | --- | --- | --- | --- | --- | --- | --- | --- | --- | --- | --- | --- | --- | --- | --- |
| F133W | 0.066 | 0.0726 | 0.0581 | 0.0811 | 0.0724 | 0.049 | 0.0783 | 0.122 | 0.0618 | 0.0605 | 0.0571 | 0.0798 | 0.058 | 0.086 | 0.078 | – | – | – | – |
| F133K | 0.0714 | 0.0828 | 0.0585 | 0.101 | 0.0669 | 0.089 | 0.0771 | 0.0649 | 0.0559 | 0.0518 | – | – | 0.0652 | 0.0875 | – | 0.0578 | 0.0679 | – | – |
| V126A | 0.0528 | 0.0757 | 0.0617 | 0.0986 | 0.0577 | 0.0852 | 0.0601 | – | 0.0654 | 0.0653 | 0.0919 | – | 0.0611 | 0.098 | 0.0673 | 0.0663 | – | 0.0642 | 0.0723 |
| V78Y | 0.0645 | 0.0568 | 0.0619 | 0.0817 | – | 0.0564 | 0.062 | – | – | – | – | – | 0.0635 | – | 0.0541 | – | – | – | 0.0652 |
| V78P | 0.0737 | 0.0789 | 0.0516 | 0.0739 | 0.0585 | 0.0633 | 0.0664 | – | 0.0606 | 0.0432 | 0.0584 | 0.0596 | 0.0547 | 0.0616 | 0.0533 | 0.0513 | – | 0.0586 | 0.0602 |
| V78W | 0.0724 | – | 0.06 | 0.08 | 0.0675 | 0.0691 | 0.0653 | – | 0.063 | – | 0.0405 | – | – | 0.0781 | – | 0.0758 | – | 0.0612 | – |
| P89S | 0.053 | 0.0698 | 0.0588 | – | 0.065 | – | 0.0586 | 0.0716 | 0.0632 | 0.0718 | 0.0503 | 0.0782 | 0.0355 | 0.0796 | 0.0579 | 0.0779 | – | 0.0659 | – |
| S135R | 0.0759 | 0.0618 | 0.0601 | 0.0783 | 0.0531 | 0.0596 | 0.0662 | 0.0587 | 0.0568 | 0.0706 | 0.065 | 0.0356 | 0.0555 | 0.0721 | 0.0571 | 0.0734 | – | – | 0.0647 |
| S121W | 0.0664 | 0.0811 | 0.069 | 0.0845 | 0.0611 | 0.072 | 0.0792 | 0.086 | 0.0544 | 0.0611 | – | 0.0777 | 0.0638 | – | – | – | – | – | – |
| S121H | 0.0775 | – | 0.0625 | 0.0916 | 0.0684 | 0.0872 | 0.0913 | 0.0742 | 0.0528 | 0.0611 | – | 0.0692 | 0.0609 | 0.106 | – | 0.0628 | – | – | 0.0818 |
| S121M | 0.0698 | 0.0729 | 0.0626 | 0.0759 | 0.0784 | 0.076 | 0.0748 | 0.0754 | 0.0638 | 0.0719 | 0.0739 | 0.0871 | 0.0628 | 0.0687 | – | 0.0607 | 0.0673 | – | – |
| S127G | 0.0424 | 0.0597 | 0.0602 | 0.09 | 0.106 | 0.0838 | 0.0766 | – | 0.0747 | – | 0.0726 | 0.0797 | 0.0717 | 0.0888 | – | 0.0479 | – | – | 0.0827 |
| S124V | 0.0625 | – | 0.0666 | 0.0818 | 0.0666 | 0.0959 | 0.0801 | 0.073 | 0.0587 | 0.0572 | 0.0704 | – | 0.0604 | 0.0835 | 0.0725 | – | 0.06 | – | 0.0778 |
| P104G | 0.0556 | 0.0531 | 0.0622 | 0.0602 | 0.0536 | – | 0.0589 | – | 0.0579 | 0.0596 | 0.0482 | 0.0542 | 0.0552 | 0.0553 | 0.0552 | 0.0622 | – | – | 0.0425 |
| P134D | 0.0633 | 0.0683 | 0.0649 | 0.0545 | 0.0654 | 0.0682 | 0.07 | 0.0576 | 0.0607 | 0.0758 | 0.0733 | 0.0687 | 0.0578 | 0.0643 | 0.0535 | 0.0641 | – | 0.0809 | – |
| E107Y | 0.0676 | – | 0.0618 | 0.0941 | 0.0677 | 0.0869 | 0.067 | – | 0.0599 | 0.0549 | 0.061 | 0.0856 | 0.0471 | – | – | – | 0.0553 | – | – |
| R109G | 0.0673 | 0.0663 | 0.0343 | 0.0795 | 0.0648 | 0.0891 | 0.0936 | 0.0529 | 0.0789 | 0.0497 | 0.0666 | 0.0837 | 0.0668 | 0.082 | 0.0639 | 0.0599 | – | – | 0.035 |
| R109W | 0.0717 | 0.0487 | 0.0614 | 0.0958 | 0.0658 | 0.078 | 0.0743 | 0.0684 | 0.0613 | 0.0519 | 0.0715 | – | – | 0.081 | 0.0754 | 0.0684 | 0.0539 | – | 0.0722 |
| R109I | 0.0733 | 0.0593 | 0.0599 | 0.0823 | 0.0765 | – | 0.0996 | 0.0637 | 0.0679 | 0.0677 | – | 0.0583 | – | 0.0747 | 0.0514 | – | – | 0.0782 | – |
| L77Y | 0.0629 | 0.0581 | 0.0705 | 0.0918 | 0.089 | 0.0695 | 0.0653 | 0.0667 | – | – | 0.0568 | – | 0.0519 | 0.0626 | – | 0.076 | 0.0677 | – | 0.0516 |
| L77I | 0.0558 | 0.065 | 0.0634 | 0.067 | – | 0.0627 | 0.0609 | 0.0739 | 0.0607 | 0.0667 | 0.0568 | 0.0677 | 0.0564 | 0.0674 | 0.0405 | 0.0551 | – | – | – |
| C111S | 0.0676 | 0.0643 | 0.0717 | 0.0901 | – | 0.0828 | 0.094 | 0.0616 | 0.0694 | 0.0713 | – | 0.0772 | 0.0668 | 0.0967 | – | 0.0555 | – | 0.0626 | 0.0724 |
| K98L | 0.0625 | – | 0.0609 | 0.0812 | 0.0888 | – | 0.0625 | 0.0801 | 0.0633 | – | – | 0.0711 | 0.0715 | 0.112 | 0.0961 | – | 0.0848 | 0.0655 | – |
| K98C | 0.0624 | 0.0695 | 0.0618 | 0.0745 | 0.0768 | 0.0838 | 0.132 | 0.0867 | 0.0674 | 0.0444 | 0.0662 | 0.075 | 0.0568 | 0.0955 | – | 0.0625 | 0.0563 | – | 0.0757 |
